# Reference: PubChem BioAssay AID651820 (National Center for Advancing Translational Sciences (NCATS), 2012)
# Where “and” joins values, the source holds several entries; their conditions need not be identical. Equal entries are not always repeated. The whole screen tested about 340,000 compounds, of which about 12,000 (3.5%) were called active. Inconclusive results, whose numbers are uncertain, are shown with a selection of clear calls. Calls come from the whole dose curve; as a rule, active = well fitted inhibition curve with a large enough effect; inconclusive = small, poorly fitted or top-dose-only effect, or another doubt; inactive = no such curve, though single readings can be large or run the other way. Potencies of inconclusive entries are doubtful fits and often do not repeat. More than one record can exist for a structure, and the calls need not agree.
# Assay: qHTS Assay for Inhibitors of Hepatitis C Virus (HCV)
# Settings: Huh7.5.1 HCVcc-Cre (HCVcc is cell-culture hepatitis C virus) infection, luciferase reporter, 44 h; activity change, negative = inhibition: at 41.8 µM (top of the series)
# Summary of the method: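 Infectious HCVcc-Cre (~0.5 moi) was added to cells just after compound, with cells seeded 4 h earlier at 1,000 per well. Luciferase activity after 44 h culture reported infection; substrate was incubated 15 min at room temperature before reading.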
# % is set by controls: 0 for no effect and ±100 for the full control effect; potency is the fitted concentration of half-maximal effect; tags give direction and shape of the fitted curve.
Structure (SMILES),Potency,"activity change, negative = inhibition"
S=c1[nH]nc(-c2cc(-c3ccccc3)n[nH]2)n1/N=C/c1ccc(Cl)cc1,"inconclusive: 3.98 µM [inhibitor, single point]",
O=c1c2ccccc2nnn1CSc1nc2sc3c(c2c(=O)n1CC1CCCO1)CCC3 (configuration not stated),"inconclusive: 22.4 µM [inhibitor, single point]",
COc1ccc(OC)c(C(c2nnnn2C2CCCC2)N2CCN(c3ccc(F)cc3)CC2)c1 (configuration not stated),"inconclusive: 11.2 µM [inhibitor, single point] and inconclusive: 14.1 µM [inhibitor, single point]",
COc1cc(OC)cc(-c2sc3ccc(OC)cc3c2-c2ccc(OCCN3CCOCC3)cc2)c1,"inconclusive: 3.16 µM [inhibitor, single point]",
O=C(COC(=O)c1ccc(S(=O)(=O)NCc2ccco2)cc1)Nc1ccccc1OC(F)F,active: 11.2 µM,
CCN(CCNC(=O)C1CCN(S(C)(=O)=O)CC1)c1ccccc1,,inactive: 2.09%
CC(C)c1nc2oc3c(NCC4CCCO4)ncnc3c2c2c1CCC2 (configuration not stated),active: 11.2 µM,
CCOc1ccc(-c2cc(C(=O)NCCCN3CCN(CC)CC3)c3ccccc3n2)cc1,active: 8.91 µM,
CCn1c(CNc2ccc(OC)cc2)nnc1SCC(=O)c1ccc(OC)cc1,"inconclusive: 31.6 µM [inhibitor, single point]",
COc1ccc(-c2c(-c3ccc(O)cc3O)n[nH]c2C)cc1OC,"inconclusive: 31.6 µM [inhibitor, single point]",
CC(=O)c1c(C)[nH]c(C(=O)CSc2nnc(-c3ccco3)o2)c1C,"inconclusive: 0.794 µM [inhibitor, full curve, poor fit]",
CC(C)(c1cc(Br)c(O)c(Br)c1)c1cc(Br)c(O)c(Br)c1,,inactive: 0.823%
COc1cccc(-c2cc(C(=O)N3CCN(Cc4ccc5c(c4)OCO5)CC3)on2)c1,"inconclusive: 14.1 µM [inhibitor, single point]",
CS(=O)(=O)N(CC(=O)Nc1cccc(F)c1)Cc1ccccc1,"inconclusive: 5.62 µM [inhibitor, single point]",
O=C(OCn1ncc(Cl)c(Cl)c1=O)c1ccc(C(F)(F)F)cc1,active: 10 µM,
CCOc1ccc(CC2c3cc(OCC)c(OCC)cc3CCN2C(=O)c2cc(OC)c(OC)c(OC)c2)cc1OCC (configuration not stated),"inconclusive: 11.2 µM [inhibitor, partial curve]",
CN(C(=O)c1cccc(NC(=O)Cc2ccc(NC(=O)C3CCCN(S(=O)(=O)c4cccc([N+](=O)[O-])c4)C3)cc2)c1)C1CCCC1 (configuration not stated),"inconclusive: 8.91 µM [inhibitor, partial curve, poor fit]",
CCOc1ccccc1NC(=O)NC1CCN(CC(=O)Nc2ccc3c(c2)OCCO3)CC1,"inconclusive: 2.51 µM [inhibitor, full curve]",
COc1ccc(C(=O)NC(=S)Nc2ccc(N3CCOCC3)cc2)cc1Cl,"inconclusive: 14.1 µM [inhibitor, single point]",
N#Cc1c2ccc([N+](=O)[O-])cc2[n+]([O-])n1-c1ccccc1,active: 1.58 µM,
COC(=O)c1sccc1NC(=S)N1CCN(c2cc(C)ccc2C)CC1,"inconclusive: 22.4 µM [inhibitor, single point]",

Structure (SMILES),Potency,"activity change, negative = inhibition"
CCNC(=O)/C(C#N)=C/c1c(N2CCCCCC2)nc2c(C)cccn2c1=O,"inconclusive: 31.6 µM [inhibitor, single point]",
CCNC(=S)NN=C1c2ccccc2-c2ccccc21,active: 15.8 µM,
Cc1cc(C(=O)COC(=O)c2ccccc2O)c(C)n1Cc1cccs1,"inconclusive: 10 µM [inhibitor, partial curve]",
CCc1ccc(NC(=O)c2ccc(NC(=O)C3CCCO3)cc2)cc1 (configuration not stated),"inconclusive: 8.91 µM [inhibitor, partial curve]",
Cc1ccc(S(=O)(=O)c2cnc(-c3ccccc3)nc2N2CCN(C)CC2)cc1,"inconclusive: 11.2 µM [inhibitor, partial curve]",
COc1ccc(-c2nc(CS(=O)(=O)CC(=O)NCCc3cc(OC)ccc3OC)c(C)o2)cc1,"inconclusive: 35.5 µM [inhibitor, partial curve]",
O=C(NC(=S)Nc1ccccc1N1CCN(C(=O)c2ccccc2)CC1)c1ccccc1F,"inconclusive: 15.8 µM [inhibitor, partial curve, poor fit]",
COc1ccccc1N(CC(O)Cn1c2ccccc2c2ccccc21)S(=O)(=O)c1ccccc1 (configuration not stated),"inconclusive: 31.6 µM [inhibitor, single point]",
C=CCn1c(SCC(O)Cn2c3ccccc3c3ccccc32)nnc1-c1ccco1 (configuration not stated),"inconclusive: 8.91 µM [inhibitor, partial curve, poor fit]",
O=C(/C=C/c1cccs1)c1cc(F)ccc1OC(=O)N1CCOCC1,"inconclusive: 5.62 µM [inhibitor, single point]",
Cc1cccc(OCC(=O)N(C)CCc2ccccn2)c1,"inconclusive: 31.6 µM [inhibitor, single point]",
CC(=O)N1CCN(S(=O)(=O)c2cccc(C(=O)Nc3ccccc3N3CCCCC3)c2)CC1,"inconclusive: 25.1 µM [inhibitor, single point]",
COc1ccc(OC)c(NC(=S)NCCC(c2ccccc2)c2ccccc2)c1,"inconclusive: 20 µM [inhibitor, single point]",
COc1ccc(N=C(NN)c2ccc3ccccc3n2)cc1,,inactive: 6.13%
CCN(CC)C(=O)c1cc([N+](=O)[O-])cc2c1-c1ccc([N+](=O)[O-])cc1C2=C(C#N)C#N,,inactive: -16.1%
CCN(CC)S(=O)(=O)c1ccc(N/N=C/c2ccc(O)cc2O)nc1,"inconclusive: 3.55 µM [inhibitor, full curve]",
Cc1nn(-c2ccccc2)c(Cl)c1/C=N/NC(=O)CNC(=O)c1ccccc1Cl,"inconclusive: 8.91 µM [inhibitor, partial curve]",
COc1ccc(C(=O)NC(=S)Nc2ccc(S(=O)(=O)Nc3cc(OC)ncn3)cc2)cc1,"inconclusive: 5.62 µM [inhibitor, single point]",
CCc1ccc(NSc2ccccc2[N+](=O)[O-])cc1,"inconclusive: 10 µM [inhibitor, partial curve]",
COc1ccc(Cl)cc1NC(=O)CN(C)C(=O)CCCNC(=O)c1ccc(Cl)cc1,"inconclusive: 22.4 µM [inhibitor, single point]",
Cc1ccc(NC(=O)c2ncn(CCCN[C@H](C)c3cccc4ccccc34)n2)cc1C,,inactive: 5.04%

Structure (SMILES),Potency,"activity change, negative = inhibition"
Cc1cc(NC(=O)/C=C/C(=O)N(c2ccccc2C)C(C(=O)NC2CCCC2)c2ccc(F)cc2)no1 (configuration not stated),"inconclusive: 25.1 µM [inhibitor, single point]",
COc1ccc(Nc2nc(-c3cccs3)nc3ccccc23)cc1S(=O)(=O)N1CCOCC1,active: 2.82 µM,
COc1cccc(CC2(CO)CCCN(Cc3cn[nH]c3C3CCCCC3)C2)c1 (configuration not stated),,inactive: 9.77%
O=C(CN1C(=O)NC2(CCCCC2)C1=O)Nc1ccc(Cl)c(S(=O)(=O)N2CCOCC2)c1,"inconclusive: 22.4 µM [inhibitor, single point]",
C1=C(c2ccccc2)Nc2ccccc2N=C1c1ccccc1,"inconclusive: 2.51 µM [inhibitor, single point]",
COc1ccccc1N1CCN(C(=O)C(=O)c2cn(CC(=O)N3CCCCCC3)c3ccccc23)CC1,,inactive: 1.73%
O=C(O)CCC(NC(=O)c1cncc(O)c1)C(=O)O (configuration not stated),,inactive: 18.7%
COc1ccc(C(=O)C2CCCN(Cc3cccn3-c3nccs3)C2)cc1OC (configuration not stated),"inconclusive: 25.1 µM [inhibitor, single point]",
O=C(NCc1ccc(OC(F)(F)F)cc1)c1cccc2c1C(=O)c1ccc(N3CCC(Cc4ccccc4)CC3)cc1S2(=O)=O,"inconclusive: 4.47 µM [inhibitor, single point]",
CSc1nc(N)nc(SCC(=O)Nc2cccc(F)c2)c1C#N,"inconclusive: 28.2 µM [inhibitor, single point]",
Cc1cccc(NC(=O)c2nc[nH]c2C(=O)N[C@H](C)c2ccccc2)c1,"inconclusive: 0.562 µM [inhibitor, full curve, poor fit]",
CCN(c1ccccc1)S(=O)(=O)c1ccc2c(c1)CCCN2C(C)=O,,inactive: 4.76%
O=S(=O)(Nc1nc2ccccc2nc1N1CCN(CCO)CC1)c1cc(F)ccc1F,,inactive: 3.14%
CCCC(=O)NC(=S)Nc1cccc(NC(=O)c2ccccc2)c1,"inconclusive: 3.55 µM [inhibitor, single point]",
COc1ccc(Nc2nc(C)nc3sc4c(c23)CCC4)cc1O,"inconclusive: 28.2 µM [inhibitor, single point]",
O=C(CN1CCC(n2nnc3cc(C(F)(F)F)ccc32)CC1)Nc1ccc2c(c1)OCCO2,"inconclusive: 31.6 µM [inhibitor, single point]",
CCOC(=O)c1c(C)[nH]c(C(=O)Cn2c(=O)oc3ccccc32)c1C,"inconclusive: 3.55 µM [inhibitor, partial curve]",
N#CCCn1cc(C(=O)NCc2ccccc2)c(-c2cccs2)n1,,inactive: 4.58%
C#CCOCCOCCOCCNc1nc(N2CCN(C(=O)CCCCCCCCCCNC(=O)Cn3cc(C[C@@H](C)O)nn3)CC2)nc(N2CCN(C(=O)CCCCCCCCCCNC(=O)[C@@H]([C@H](C)O)n3cc(C)nn3)CC2)n1,"inconclusive: 11.2 µM [inhibitor, partial curve, poor fit]",
Cc1ccc2[nH]c(=O)c(CN(C(=O)c3cccs3)c3ccccc3)cc2c1,"inconclusive: 12.6 µM [inhibitor, single point]",
